About 530 (0.96%) of roughly 55,000 compounds were called active. Inconclusive results, whose numbers are uncertain, are shown with a selection of clear calls. The call rests on the fitted dose curve; in most records, active means well fitted cell-killing curve with a large enough effect; inconclusive means small, poorly fitted or top-dose-only effect; inactive means no such curve, though single readings can be large or run the other way. Potencies beside an inconclusive call are fits to weak or partial responses and may not hold up.
Assay: qHTS Screen for Compounds that Selectively Target Cancer Cells with p53 Mutations: Cytotoxicity of p53 Null Cells at the Nonpermissive Temperature; further: nearly all actives have a fitted effect of over 50% in size;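 on activity, negative = cell killing: 0% = DMSO only and -100% = full killing by 100 µM tamoxifen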
Conditions: H1299 p53-null (neo) cells, 39C, ATPlite viability, 24 h; activity, negative = cell killing: at 46.1 µM (top of the series)
In short: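 ATP-luminescence viability readout (ATPlite, 20 min RT) after 24 hr compound treatment at 39C of H1299-neo or H1299-p53A138V cells; titration up to 46 uM; normalized to DMSO and 100 uM tamoxifen; Hill-fit AC50.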
Potency means the concentration at half of the fitted maximal effect; tags describe the fitted curve by direction and shape.

Row | Compound | Potency | activity, negative = cell killing
1 | Cc1nn(-c2ccccc2)c(-n2cccc2)c1C(=O)NCCc1ccc(Cl)cc1 | inconclusive: 11.2 µM [cytotoxic, single point] | –
2 | Cn1c(=O)c2cc(C(=O)NCCCN3CCN(c4cccc(Cl)c4)CC3)sc2c2ccccc21 | inconclusive: 7.94 µM [cytotoxic, partial curve] | –
3 | COc1ccc(OC)c2sc(N3CCN(C(=O)c4ccc5c(c4)CCCC5)CC3)nc12 | inconclusive: 0.141 µM [cytotoxic, full curve, poor fit] | –
4 | COc1ccc(C2CC(=O)N(Cc3ccc(F)cc3)c3ccccc3S2)cc1OC (stereo not drawn) | – | inactive: 9.57%
5 | COc1ccc(-n2nc(C(=O)Nc3cc(OC)c(OC)c(OC)c3)c(=O)n(C)c2=O)cc1 | inconclusive: 7.94 µM [cytotoxic, partial curve] | –
6 | CC(=O)c1ccc(NC(=O)C2Cc3ccccc3N2C(=O)c2ccccc2)cc1 (stereo not drawn) | – | inactive: -23.2%
7 | COc1ccc(C(=O)Nc2ccc3c(c2)OCCO3)cc1 | active: 11.2 µM | –
8 | CCC(C)Cn1c(/C=C/c2ccccc2)nc2ccccc21 (stereo not drawn) | active: 10 µM | –
9 | Cc1cc(C)c(NS(=O)(=O)c2ccc3c(c2)NC(=O)CCS3)c(C)c1 | – | inactive: 5.3%
10 | Cc1ccc(Nc2c(-c3ccc(N4CCOCC4)cc3)nc3ncccn23)c(C)c1 | inconclusive: 6.31 µM [cytotoxic, partial curve] | –
11 | Cn1ccc2c(OCC(=O)NCc3ccc(F)cc3)cccc2c1=O | – | inactive: 32.5%
12 | CCc1ccc(NC(=O)C(=O)NCCc2sc(-c3ccc(C)cc3)nc2C)cc1 | inconclusive: 15.8 µM [cytotoxic, partial curve] | –
13 | O=C(Cn1cc(SCc2ccc(F)cc2)c2ccccc21)N1CCCC1 | inconclusive: 0.005 µM [cytotoxic, full curve, poor fit] | –
14 | CCCCn1c(C2CC(=O)N(c3ccc(OCC)cc3)C2)nc2ccccc21 (stereo not drawn) | inconclusive: 35.5 µM [cytotoxic, single point] | –
15 | COc1ccc(C(=O)CC2(O)C(=O)N(CCc3ccccc3)c3ccc(Br)cc32)cc1OC (stereo not drawn) | inconclusive: 12.6 µM [cytotoxic, partial curve, poor fit] | –
16 | COc1cc(CN(C(=O)c2ccc(C)cc2)c2ccccn2)cc(OC)c1OC | inconclusive: 0.01 µM [cytotoxic, full curve, poor fit] | –
17 | CC(=O)Nc1cccc(-c2nnc(SCC(=O)c3ccc([N+](=O)[O-])cc3)o2)c1 | – | inactive: -10.3%
18 | CN(C(=O)CSc1nc2ccc(NC(=O)c3ccccc3)cc2s1)c1ccccc1 | inconclusive: 10 µM [cytotoxic, partial curve] | –
19 | CC(C)COc1ccc(C(=O)Nc2onc3c2CCCC3)cc1 | active: 12.6 µM | –
20 | CCN(CC)CCCNC(=O)c1ccc2c(c1)N(Cc1c(F)cccc1Cl)C(=O)c1ccccc1S2 | inconclusive: 12.6 µM [cytotoxic, single point] | –
21 | CCOc1ccc(S(=O)(=O)N2CCC(N3CCN(Cc4ccc(F)cc4)C(=O)C3=O)CC2)cc1 | inconclusive: 14.1 µM [cytotoxic, partial curve, poor fit] | –

Row | Compound | Potency | activity, negative = cell killing
22 | CSc1ccc(CCNC(=O)CCn2c(=O)c3cccn3c3cccnc32)cc1 | inconclusive: 0.01 µM [cytotoxic, full curve] | –
23 | CCOc1ccc(-c2cc3c(=O)n(CC(=O)NCc4ccc(OC)cc4)ccn3n2)cc1 | inconclusive: 2.51 µM [cytotoxic, full curve, poor fit] | –
24 | CCS(=O)(=O)N1CCc2cc(C(=O)Nc3cccc(C)c3C)ccc21 | – | inactive: 5.71%
25 | O=c1[nH]c(=O)n(Cc2ccccc2)c2nc(-c3ccc(Oc4ccc(F)cc4)c([N+](=O)[O-])c3)n(CCO)c12 | inconclusive: 15.8 µM [cytotoxic, single point] | –
26 | O=C(CSc1nc(-c2ccccc2)[nH]c1-c1ccccc1)Nc1ccc2c(c1)OCO2 | inconclusive: 10 µM [cytotoxic, partial curve] | –
27 | Cn1c(CNC(=O)CSc2n[nH]c(-c3ccccc3)n2)nc2ccccc21 | inconclusive: 6.31 µM [cytotoxic, full curve, poor fit] | –
28 | CC1CCN(C(=O)CSc2nc(-c3ccc(C(C)C)cc3)no2)CC1 | inconclusive: 31.6 µM [cytotoxic, single point] | –
29 | CCC1CCCCN1CCCNC(=O)c1ccc2c(c1)N(Cc1ccccc1F)C(=O)c1ccccc1S2(=O)=O (stereo not drawn) | inconclusive: 10 µM [cytotoxic, partial curve] | –
30 | CCC(=O)N1CCc2cc(CNC(=O)Nc3ccccc3Cl)ccc21 | inconclusive: 0.126 µM [cytotoxic, full curve, poor fit] | –
31 | Cc1ccc(C)c(NC(=O)CCc2nc(-c3ccc(C(C)(C)C)cc3)no2)c1 | inconclusive: 11.2 µM [cytotoxic, partial curve] | –
32 | COc1ccc(C(=O)Nc2ccc(C(=O)OCC(=O)c3cccc4ccccc34)cc2)cc1 | – | inactive: 23.5%
33 | COc1ccc(N2CCN(CCCNC(=O)c3ccc4nc(CCc5ccccc5)oc4c3)CC2)cc1 | – | inactive: -20.5%
34 | CCOc1ccc(C2C=C(c3cccc(OC)c3)Nc3nnnn32)cc1 (stereo not drawn) | inconclusive: 15.8 µM [cytotoxic, single point] | –
35 | CCOc1ccc(C2N3CC4(C(C)C)CN2CC(C(C)C)(C3)C4=O)cc1OC (stereo not drawn) | inconclusive: 3.98 µM [cytotoxic, partial curve] | –
36 | C#CCN1C(=O)C(O)(CC(=O)c2ccc(OC)c(OC)c2)c2cc(Br)ccc21 (stereo not drawn) | inconclusive: 17.8 µM [cytotoxic, partial curve, poor fit] | –
37 | Cc1ccc(S(=O)(=O)N(CC(O)Cn2c3ccccc3c3ccccc32)c2cccc(C(=O)N(C)C)c2)cc1 (stereo not drawn) | inconclusive: 20 µM [cytotoxic, single point] | –
38 | CCOc1ccc(-n2nc(CO)c(C(=O)NCc3ccccn3)n2)cc1 | inconclusive: 14.1 µM [cytotoxic, partial curve] | –
39 | CN(C)c1ccc(C=Nc2ccc(N(C)C)cc2)cc1 | inconclusive: 10 µM [cytotoxic, partial curve, poor fit] | –
40 | CCOc1ccc(Cl)cc1CNCCCSc1nnnn1C | inconclusive: 6.31 µM [cytotoxic, single point] | –
41 | CCc1ccc(NC(=O)CSc2ccc3nc(-c4ccc(OC)cc4)cn3n2)cc1 | inconclusive: 7.94 µM [cytotoxic, partial curve] | –
42 | Cc1ccc(C(=O)Nc2nnc(S(=O)(=O)N3CCCCCC3)s2)cc1 | inconclusive: 7.94 µM [cytotoxic, partial curve] | –

Row | Compound | Potency | activity, negative = cell killing
43 | CC(=O)Nc1ccc(-c2nnc3n(Cc4ccc(C)cc4)c(=O)c4ccccc4n23)cc1 | – | inactive: -16.7%
44 | O=C(CSc1nc2cc3ccccc3cc2[nH]1)Nc1ccc(F)cc1 | inconclusive: 31.6 µM [cytotoxic, partial curve, poor fit] | –
45 | O=C(NCCCN1CCN(c2ccc(F)cc2)CC1)c1cc2c(Cl)nc3ccccc3c2s1 | – | inactive: -24.3%
46 | CC(C)c1ccc(-c2noc(SCC(=O)N3CCCCC3C)n2)cc1 (stereo not drawn) | inconclusive: 22.4 µM [cytotoxic, single point] | –
47 | Cc1ccc(NC(=O)CN2C(=O)COc3ccc(S(=O)(=O)N4CCCCCC4)cc32)cc1Cl | inconclusive: 20 µM [cytotoxic, single point] | –
48 | COc1ccc(CNC(=O)c2cc3cc4ccc(C)cc4nc3o2)cc1 | inconclusive: 25.1 µM [cytotoxic, single point] | –
49 | COc1ccc(-c2cc(C(=O)Oc3ccc(C)cc3)c3ccccc3n2)cc1 | inconclusive: 2.51 µM [cytotoxic, partial curve] | –
50 | CCN1CCN(C(=O)C2(NC(=O)Nc3cccc(F)c3)CCCCC2)CC1 | – | inactive: -11.5%
51 | Cc1ccccc1-c1ccnc2[nH]n(-c3ccccc3)c(=O)c12 | inconclusive: 31.6 µM [cytotoxic, single point] | –
52 | Cc1ccc(S(=O)(=O)c2cnc(SCC(=O)Nc3ccc4c(c3)OCCO4)[nH]c2=O)cc1Cl | inconclusive: 0.1 µM [cytotoxic, full curve, poor fit] | –
53 | CS(=O)(=O)c1ccccc1-c1nnc(NC(=O)c2ccc3c(c2)OCCO3)o1 | inconclusive: 31.6 µM [cytotoxic, single point] | –
54 | COc1ccc(-n2nnnc2C2CCN(S(=O)(=O)c3ccc(F)cc3Cl)CC2)cc1 | inconclusive: 3.55 µM [cytotoxic, full curve, poor fit] | –
55 | COc1ccccc1OCCCCn1c(C2CC(=O)N(c3ccccc3Cl)C2)nc2ccccc21 (stereo not drawn) | inconclusive: 2 µM [cytotoxic, partial curve, poor fit] | –
56 | O=C(NC1CCCC1)c1cnn(-c2ccc(F)cc2F)c1C1CCNCC1 | inconclusive: 0.02 µM [cytotoxic, full curve, poor fit] | –
57 | Cc1ccc(S(=O)(=O)c2cnc(SCC(=O)Nc3ccccc3C(F)(F)F)[nH]c2=O)cc1C | – | inactive: -8.2%
58 | COc1ccc2c(c1)c(CC(=O)Nc1cccc(F)c1C)c(C)n2C(=O)c1ccc(Cl)cc1 | inconclusive: 0.0631 µM [cytotoxic, full curve, poor fit] | –
59 | Nc1nc(SCc2ccc(Cl)cc2)[nH]c(=O)c1-c1ccccc1 | – | inactive: 0.29%
60 | Cc1cc(C)c2c(=O)cc(C(=O)Nc3sc4c(c3C#N)CCCC4)oc2c1 | inconclusive: 3.16 µM [cytotoxic, full curve] | –
61 | CC(C)(C)C1CCc2nc(NC(=O)COc3ccccc3[N+](=O)[O-])sc2C1 (stereo not drawn) | – | inactive: 4.43%
62 | Cc1ccc(-c2noc(C(C)NC(=O)c3ccco3)n2)cc1 (stereo not drawn) | inconclusive: 7.94 µM [cytotoxic, partial curve] | –
63 | O=C(Nc1cccc(C(F)(F)F)c1)c1cc(-c2ccc(Cl)cc2)on1 | – | inactive: 16.3%
